Results as given in article PMC6919601, “Identification of Plasmodium dipeptidyl aminopeptidase allosteric inhibitors by high throughput screening” (PLoS ONE, 2019).
The whole screen tested about 110,000 compounds, of which about 230 (0.21%) showed an effect of 50% or more. This is one part of the list.

What follows are compounds tested against DPAP1 (Plasmodium falciparum, UniProt Q8IIJ9) (assay: primary screen, percent inhibition; read by cleavage of a fluorogenic dipeptide substrate; higher = more effect of the substance).
Sequence of DPAP1 (Q8IIJ9 whole entry, looked up): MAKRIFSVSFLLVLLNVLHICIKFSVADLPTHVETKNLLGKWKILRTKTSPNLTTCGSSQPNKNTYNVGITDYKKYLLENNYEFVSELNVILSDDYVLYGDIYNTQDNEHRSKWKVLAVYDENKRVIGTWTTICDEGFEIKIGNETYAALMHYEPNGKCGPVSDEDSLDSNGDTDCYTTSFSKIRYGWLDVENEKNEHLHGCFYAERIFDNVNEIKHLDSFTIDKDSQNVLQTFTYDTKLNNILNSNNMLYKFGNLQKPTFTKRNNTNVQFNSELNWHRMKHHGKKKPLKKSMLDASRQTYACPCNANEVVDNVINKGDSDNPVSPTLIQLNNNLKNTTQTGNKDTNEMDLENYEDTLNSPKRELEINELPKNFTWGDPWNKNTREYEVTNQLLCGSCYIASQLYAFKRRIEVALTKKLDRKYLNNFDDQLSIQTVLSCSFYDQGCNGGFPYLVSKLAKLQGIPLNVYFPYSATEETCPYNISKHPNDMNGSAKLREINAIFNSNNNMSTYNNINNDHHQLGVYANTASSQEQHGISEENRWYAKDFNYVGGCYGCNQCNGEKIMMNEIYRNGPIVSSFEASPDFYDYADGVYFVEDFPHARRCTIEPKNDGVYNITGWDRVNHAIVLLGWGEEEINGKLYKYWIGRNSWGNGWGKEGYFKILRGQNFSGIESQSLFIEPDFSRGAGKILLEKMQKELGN
Design: species or system P. falciparum D10 trophozoite lysates; single well
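Further: 30 min substrate incubation versus DMSO and 10 µM JCP410 controls.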

In order of rising “% Inhibition @ 10 uM” value:
1. CC(C)Cc1cc(C(=O)N2CCN(C(c3ccccc3)c3ccccc3)CC2)no1  -11.5%
2. CC12CN3CC(C)(CN(C1)C3c1cccc(Br)c1)C2 (stereo not drawn)  -10.2%
3. CCc1c(CN2CCN(C3CCCCC3)CC2)csc1C  -7.94%
4. CCOC(=O)c1c(NS(=O)(=O)c2ccc([N+](=O)[O-])cc2)sc(C)c1C  -6.99%
5. CC1CN(C(=O)c2ccccc2)c2ccccc2NC1=O (stereo not drawn)  -6.74%
6. CO/C(O)=C1\C(C)=NC2=C(C(=O)CC(c3cccs3)C2)C1c1ccc(C)o1 (stereo not drawn)  -6.6%
7. c1ccc2c(c1)nc(NCCc1c[nH]c3ccccc13)c1nnnn12  -6.22%
8. CCC12CC3CC(C1)CC(NC(=O)NC14CC5CC(CC(CC)(C5)C1)C4)(C3)C2  -6.12%
9. CCOc1ccc(-n2c(C)nnc2SCc2nc(-c3ccc(OC)cc3)no2)cc1  -5.91%
10. CN1C(=O)c2cccc(NCCCCN3C(=O)c4ccccc4C3=O)c2C1=O  -5.79%
11. COc1ccc(S(=O)(=O)N(CC(=O)NC2CC2)c2ccc(C)cc2)cc1Br  -5.66%
12. CCOC(=O)C1=C(CC)OC(N)=C(C#N)C1c1ccc(OC)c(Br)c1 (stereo not drawn)  -5.65%
13. CN(Cc1ccc(N(C)C)cc1)CC(O)c1ccccc1 (stereo not drawn)  -5.31%
14. COc1ccc(-n2c(C)ccc2-c2ccccc2)cn1  -4.93%
15. COc1ccc(C(=O)N2CCN(Cc3cc(OC)c(OC)cc3OC)CC2)cc1  -4.84%
16. COC(=O)c1c(C)oc2ccc(O)c(CN3CCOCC3)c12  -4.82%
17. COCCNC(=O)Cn1cc(C#N)c2ccccc21  -4.65%
18. Cc1c(C(=O)NCCN2CCOCC2)oc2c1-c1nn(Cc3ccccc3Cl)cc1CC2  -4.49%
19. O=[N+]([O-])c1cc(CN2CCCCCC2)ccc1O  -4.04%
20. CCc1ccccc1NC(=O)Cn1nc(C(F)(F)F)cc1C1CC1  -3.92%
21. N#CCc1ccc(NC(=O)C(c2ccccc2)c2ccccc2)cc1  -3.34%
22. CCOC(=O)c1sc(Nc2nc(N(C)C)nc(N(C)C)n2)nc1C  -3.08%
23. Cc1ccc(NC(=O)c2noc3c2COc2ccc(C)cc2-3)nc1  -2.61%
24. CCN(CC)C(=O)/C(=C/c1cn(CC)c2ccccc12)NC(=O)c1ccccc1F  -1.74%
25. CC(C)CCC1CC1C(=O)Nc1ccc(Cl)cc1 (stereo not drawn)  -1.42%
26. CCc1ccccc1NC(=O)c1ccc(N2C(=O)c3ccccc3C2=O)cc1  -1.38%
27. CCOC(=O)N1CCN(CC(O)COc2cc(C)c(Cl)c(C)c2)CC1 (stereo not drawn)  -1.26%
28. Cc1ccc(C2C(C(=O)c3ccccc3)=C(O)C(=O)N2CCN2CCOCC2)o1 (stereo not drawn)  -1.25%
29. COc1ccc(-c2cnnn2-c2nonc2-n2cccc2)cc1  -1.05%
30. CNC(=O)/C(C#N)=C/c1c(Oc2ccccc2)nc2ccccn2c1=O  -0.828%
31. N#Cc1c(NCc2ccccc2)ccnc1SCc1ccccc1  -0.693%
32. CCSc1nnc2n(CCOc3ccccc3)c3ccccc3n12  -0.499%
33. COc1ccc(NC(=S)NC(=O)c2ccccc2)cc1  -0.415%
34. Cn1c(Cn2nnc(-c3ccccc3)n2)nnc1SCC(N)=O  -0.403%
35. CN(C)c1nc(N)nc(COC(=O)c2nn(-c3ccccc3)nc2N)n1  -0.348%
36. COc1ccc(C(=O)NCCc2ccccc2)cc1  -0.128%
37. O=C(NCc1ccncc1)c1nnc(Cc2ccccc2Cl)o1  -0.0709%
38. COc1cccc(C2=CC(c3cccc(OC)c3OC)n3c(nc4ccccc43)N2)c1 (stereo not drawn)  0.0842%
39. CC(C)CC(C(=O)NCC#N)n1cnc2c(NCCN3CCOCC3)ncnc21 (stereo not drawn)  0.173%
40. CCSc1sc(CC)cc1C1C2=C(O)CCCC2=NC(C)=C1C(=O)Nc1cccnc1 (stereo not drawn)  0.484%
41. COc1ccccc1N1CCN(C(=O)c2ccccc2N(Cc2ccccc2)S(C)(=O)=O)CC1  0.635%
42. O=C(Nc1ccc(O)cc1)c1ccc(Br)cc1  0.641%
43. Cc1cc(Nc2ccccc2)cc(=O)n1C  0.727%
44. Cc1coc2c(C)c3oc(=O)c(CCC(=O)NCc4ccco4)c(C)c3cc12  0.895%
45. CC1(C)CC(NS(C)(=O)=O)CC(C)(C)N1OC(=O)c1ccccc1  1.03%
46. CC(C)(C)c1ccc(-c2nc(NCc3cccnc3)c3ccccc3n2)cc1  2.03%
47. CC(C(=O)NCCc1ccccc1F)N1C(=O)c2ccccc2C1=O (stereo not drawn)  2.18%
48. COc1ccc(C2CC(C(F)(F)F)n3nc(C(=O)N(C)Cc4cn(C)nc4C)c(Cl)c3N2)cc1 (stereo not drawn)  2.32%
49. O=C(CSc1nc2ccccc2o1)Nc1ccccc1F  2.48%
50. CC(C)c1ccc(N2CCN(c3ccc(NC(=O)CCC(=O)O)cc3)CC2)cc1  2.49%
51. CCOC(=O)N1CCN(C(=O)/C(=C\c2cccs2)NC(=O)c2ccccc2)CC1  3.05%
52. CCOc1ccccc1-n1nnc(-c2nc(-c3cccs3)no2)c1N  3.98%
53. NC(=O)c1c(NC(=O)c2nc(S(=O)(=O)Cc3ccccc3)ncc2Cl)sc2c1CCCC2  4%
54. Cn1c(=O)[nH]c(=O)c2c1nc(Br)n2CCN1C(=O)c2ccccc2C1=O  4.86%
55. Cn1c(C(=O)N2CCC(C(=O)N3CCN(C(=O)c4ccco4)CC3)CC2)cc2sccc21  4.95%
56. CC(Oc1cccc(Cl)c1)C(=O)Nc1ccc(F)c(F)c1 (stereo not drawn)  5.24%
57. O=C(CC1Nc2ccccc2NC1=O)Nc1ccccc1C(F)(F)F (stereo not drawn)  5.39%
58. O=S(=O)(c1cccc2n[se]nc12)N1CCOCC1  6.59%
59. CCCCC1CCC(C(=O)N(Cc2ccccc2F)C2CCS(=O)(=O)C2)CC1 (stereo not drawn)  6.67%
60. CN1C(=O)NC(=O)/C(=C/c2cn(C)c3ccccc23)C1=O  7.67%
61. CC1=C(c2ccc(C)cc2)S(=O)(=O)N=C1N1CCOCC1  8.36%
62. CC1=C(C(=O)OCCOc2ccccc2)C(c2cccc(Cl)c2)C2=C(O)CCCC2=N1 (stereo not drawn)  11.8%
63. Cc1ccccc1C1CC(=O)N2CN(Cc3ccccc3)CSC2=C1C#N (stereo not drawn)  31.2%
